Source: PubChem BioAssay AID624417 (National Center for Advancing Translational Sciences (NCATS), 2012)
In all, about 410,000 compounds went through this assay and about 6,400 (1.6%) were called active. Inconclusive results, whose numbers are uncertain, are shown with a selection of clear calls. Calls come from the whole dose curve; as a rule, active = well fitted inhibition curve with a large enough effect; inconclusive = small, poorly fitted or top-dose-only effect; inactive = no such curve, though single readings can be large or run the other way. Potencies of inconclusive entries are doubtful fits and often do not repeat.

The compounds below were run against Glucagon-like peptide 1 receptor (Homo sapiens) (UniProt P43220) (assay: qHTS of GLP-1 Receptor Inverse Agonists (Inhibition Mode)). Conditions: HEK293 GLP-1R CRE-luciferase, luminescence, 24 h, GLP-1R form is constitutively active; activity change, negative = inhibition: at 38.3 µM (top of the series) unless noted.
Chain of UniProt P43220 (P43220 whole entry, looked up): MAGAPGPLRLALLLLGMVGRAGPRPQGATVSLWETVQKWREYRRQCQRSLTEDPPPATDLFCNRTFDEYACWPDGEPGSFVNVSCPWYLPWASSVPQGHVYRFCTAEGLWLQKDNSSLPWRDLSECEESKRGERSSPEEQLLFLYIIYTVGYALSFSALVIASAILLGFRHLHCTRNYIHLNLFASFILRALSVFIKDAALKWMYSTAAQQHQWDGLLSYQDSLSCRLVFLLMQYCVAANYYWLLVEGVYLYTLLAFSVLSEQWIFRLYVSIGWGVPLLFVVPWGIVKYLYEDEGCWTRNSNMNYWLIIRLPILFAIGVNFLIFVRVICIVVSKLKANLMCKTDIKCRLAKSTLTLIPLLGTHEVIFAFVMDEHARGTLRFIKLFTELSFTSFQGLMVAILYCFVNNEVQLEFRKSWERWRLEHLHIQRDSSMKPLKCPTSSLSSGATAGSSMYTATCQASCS
Summary of the method: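 Luminescence readout: a drop in cAMP-driven luciferase signal flags inverse agonism at a constitutively active GLP-1R stably expressed in HEK293. Compound exposure lasted 24 hr at 37 deg C, 5% CO2.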
% is set by controls: 0 for no effect and ±100 for the full control effect; potency is the fitted concentration of half-maximal effect; tags give direction and shape of the fitted curve.
Note: nearly all actives have a fitted effect of over 55% in size.

Potency, active:
Cc1ccc(S(=O)(=O)N(Cc2ccccc2)Cc2ccco2)cc1 11.2 µM
Cc1ccc(C(=O)C(C(=O)/C=C/c2ccccc2)=C2SCCCS2)cc1 2 µM
CC1=Nc2ccccc2/C1=C/c1sc(=N)n(-c2nccs2)c1O 2.51 µM
Cc1ccc(OCCCCCCN2CCNCC2)c(Br)c1 2.82 µM

Potency, inconclusive:
Clc1ccc(OCCOCCOc2cccc3cccnc23)c(Br)c1 10 µM [inhibitor, partial curve, poor fit]
Cc1ccc(-n2ncc(Br)c(Br)c2=O)cc1 28.2 µM [inhibitor, single point]
COc1ccc(Nc2cc(C(=O)NCCCN(C)Cc3ccccc3)c3ccccc3n2)c(OC)c1 10 µM [inhibitor, partial curve, poor fit]
Nc1ncc(-c2ccc(-c3ccccc3)cc2F)cc1-c1ccccc1F 11.2 µM [inhibitor, partial curve]
OCc1ccccc1OCCCN1CCC(Cc2ccccc2)CC1 5.62 µM [inhibitor, partial curve, poor fit]
CCn1cc(CCC(=O)NC(C)c2ccccc2)c2ccccc21 (configuration not stated) 28.2 µM [inhibitor, single point]
CCOC(=O)C1=CCC(c2ccccc2Cl)N(S(=O)(=O)c2ccc(C)cc2)C1 (configuration not stated) 31.6 µM [inhibitor, single point]
O=[N+]([O-])c1ccc(CSc2nnc(Cc3ccccc3)o2)cc1 10 µM [inhibitor, partial curve, poor fit]
Nc1ncnc2c(C3OC(CO)C(O)C3O)scc12 (configuration not stated) 1.58 µM [inhibitor, partial curve, poor fit]
CN1CCCN(C(c2ccccc2)c2ccc(Cl)cc2)CC1 (configuration not stated) 28.2 µM [inhibitor, single point]
Cc1nc(N/N=C/c2ccc(O)cc2)c2cnn(-c3ccccc3)c2n1 28.2 µM [inhibitor, single point]
CCCCCn1c(NC(=O)c2ccco2)c(S(=O)(=O)c2ccc(C)cc2)c2nc3ccccc3nc21 2.82 µM [inhibitor, full curve, poor fit]
C[C@@H]1C[C@H]2[C@@H]3CCC4=CC(=O)C=C[C@]4(C)[C@@]3(Cl)[C@@H](O)C[C@]2(C)[C@@]1(OC(=O)c1ccco1)C(=O)CCl 31.6 µM [inhibitor, partial curve, poor fit]
Cc1cccc(NC(=O)CCNS(=O)(=O)c2cc(Br)cnc2N)c1C 31.6 µM [inhibitor, partial curve, poor fit]
CCN1CCN(c2ncc3c(n2)CC(c2cc(OC)c(OC)c(OC)c2)CC3=O)CC1 (configuration not stated) 1.41 µM [inhibitor, full curve, poor fit]
O=C(N/N=C/c1ccc2c(c1)OCO2)c1cc(-c2ccco2)nc2ccccc12 10 µM [inhibitor, single point]
CCN(CC)S(=O)(=O)c1cccc(NC(=O)c2ccc(Br)cc2)c1 10 µM [inhibitor, single point]
O=C(NCCCN1CCN(c2ccc(F)cc2)CC1)C1COc2ccccc2C1 (configuration not stated) 10 µM [inhibitor, partial curve, poor fit]
COc1ccc(C(=O)c2c(C)oc3ccc(O)cc23)c(OC)c1 28.2 µM [inhibitor, single point]
O=C(Nc1ccccc1C(=O)OCc1cc(=O)n2c3c(sc2n1)CCCC3)c1ccccc1 11.2 µM [inhibitor, single point]
O=C(c1ccccc1)N(Cc1ccccc1)Cc1ccccc1 10 µM [inhibitor, partial curve, poor fit]
COC(=O)[C@@H](NCc1cccc(CN[C@H](C(=O)OC)c2ccccc2)c1)c1ccccc1 3.16 µM [inhibitor, single point]
CCCCCCOC1(c2ccccc2)OC(=O)c2ccccc21 (configuration not stated) 28.2 µM [inhibitor, single point]
COc1ccc2[nH]c(C)c(CCN(Cc3cccs3)C(=S)Nc3ccc(F)cc3)c2c1 28.2 µM [inhibitor, single point]
CSc1ccccc1OCc1cc(C(=O)N2CCc3sccc3C2)no1 28.2 µM [inhibitor, single point]
C=CCNC(=O)CSc1nnc(-c2ccccc2Br)n1-c1cccc(C(F)(F)F)c1 4.47 µM [inhibitor, full curve]
CCC1(c2ccccc2)NC(=O)N(Cc2cccc([N+](=O)[O-])c2)C1=O (configuration not stated) 28.2 µM [inhibitor, single point]
Cc1c(Cl)cccc1NC(=O)c1ccc2c(c1)nnn2C1CCCC1 1.26 µM [inhibitor, full curve, poor fit]
O=C(c1c(Cl)cccc1Cl)N1CCN(c2cccc3[nH]ccc23)CC1 11.2 µM [inhibitor, single point]
CCOc1ccc(NC(=S)/C(=C(\[O-])c2ccc(C)c([N+](=O)[O-])c2)[n+]2ccccc2)cc1 28.2 µM [inhibitor, single point]
Cc1cccc(-n2nnc(C(=O)N3CCc4ccccc4C3)c2N)c1 14.1 µM [inhibitor, single point]
CCn1nccc1C(=O)Nc1cc(Cl)cc(Cl)c1 28.2 µM [inhibitor, single point]
CCNC(=S)N(CCc1c(C)[nH]c2ccc(C)cc12)Cc1cc(OC)c(OC)c(OC)c1 12.6 µM [inhibitor, partial curve, poor fit]
CCc1cc2c(=O)[nH]c(-c3ccccn3)nc2s1 1.78 µM [inhibitor, full curve, poor fit]
O=C(CCS(=O)(=O)c1ccc(F)cc1)Nc1nc(-c2ccncc2)cs1 12.6 µM [inhibitor, partial curve, poor fit]
COC(=O)[C@@]12C[C@@H](CC(=O)N3CCC(c4ccccc4)CC3)C(=O)N(Cc3ccco3)C1=CCC(C)(C)C2 10 µM [inhibitor, single point]
Cc1ccc(C(=O)Nc2sc(Cc3ccc4c(c3)OCO4)c(C)c2C(N)=O)cc1 12.6 µM [inhibitor, single point]
Cc1c(/C(O)=C2/C(=O)C(=O)N(CCN3CCOCC3)C2c2ccccn2)cnn1-c1ccccc1 (configuration not stated) 0.501 µM [inhibitor, full curve, poor fit]
Cc1ccc(N(CC(=O)NC2CCCCC2)C(=O)c2ccc(C)s2)cc1 10 µM [inhibitor, partial curve, poor fit]
Cc1nc(Cl)sc1C(=O)Nc1cccc(Cl)c1 11.2 µM [inhibitor, single point]
Cc1ccc(S(=O)(=O)N2CCOCC2)cc1NC(=O)COC(=O)C1(C)CC1(Cl)Cl (configuration not stated) 35.5 µM [inhibitor, partial curve, poor fit]
COC(=O)c1nc(-c2ccc(C)cc2)[nH]c1C(C)(C)C 35.5 µM [inhibitor, partial curve, poor fit]
CC1Cc2ccccc2N1S(=O)(=O)c1cccc(C(=O)NCc2ccccn2)c1 (configuration not stated) 28.2 µM [inhibitor, single point]
O=C(CCCn1c(=O)oc2ccccc21)N1CCc2ccccc2C1 5.01 µM [inhibitor, partial curve]
Cc1cc2c(=O)n(Cc3ccco3)c(SCC(=O)N3CCCc4ccccc43)nc2s1 11.2 µM [inhibitor, single point]
Cc1ccc(C)c(CSC2=NC(C)(C)Nc3ccccc32)c1 10 µM [inhibitor, partial curve, poor fit]
Cc1cccc(C)c1OCC(=O)N/N=C/c1ccncc1 20 µM [inhibitor, single point]
CCCCC1(CC(=O)OCC)C(=O)N(c2ccccc2)N(c2ccccc2)C1=O 28.2 µM [inhibitor, single point]
Cc1ccc(NC(=O)c2cc(NC(=O)c3ccco3)ccc2N2CCCCC2)cc1 3.55 µM [inhibitor, full curve]
CC(C)Cn1c(N)c(C(=O)COC(=O)c2cc(F)cc(F)c2)c(=O)n(C)c1=O 28.2 µM [inhibitor, single point]

Activity change, negative = inhibition, inactive:
CCOc1ccccc1-c1noc(CSc2nnc(-c3ccccc3)n2-c2cccc(C)c2)n1 9.3%
CCOC(=O)c1c(Nc2cccc(C(=O)OC)c2)nnc(-c2ccccc2)c1-c1ccccc1 0.589%
O=C(Nc1ccccn1)C(=O)Nc1ccccn1 -23.9%
CC(C)(C)NC(=O)CSc1nccn1Cc1ccccc1 12.2%
COc1ccc(Cl)cc1NC(=O)Cn1c(=O)n(Cc2nc(C)no2)c(=O)c2ccccc21 11.4%
CC(C)(C)CC(=O)Nc1cccc(-c2cn3cccnc3n2)c1 6.61%
CC(C)(C)c1cc(CN2CCOCC2)c(C(=O)O)o1 -3.26%
O=C(NCCO)OC1CC2CC1[C@H]1CCCCN1C2=O (some centres not stated) 3.08%
